Screen size: about 44,000 compounds; about 340 (0.77%) were called active. Another 5% or so got no clear call; they are omitted. Calls come from the whole dose curve; as a rule, active = well fitted inhibition curve with a large enough effect; inconclusive = small, poorly fitted or top-dose-only effect; inactive = flat fitted curve, though single readings scatter. The list shows a part of the results.
Assay: Acumen qHTS Assay for Inhibitors of the mTORC1 Signaling Pathway in MEF (Tsc2-/-, p53-/-) Cells: Sytravon;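 note: plate controls were DMSO for no effect and rapamycin for full effect; nearly all actives have a fitted effect of over 50% in size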
Details: phospho-rpS6 immunofluorescence/PI, 24 h; series mostly up to 38.3 µM; activity change, negative = inhibition: at the top concentration
Summary of the method: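 Compounds act on Tsc2-/-, p53-/- fibroblasts carrying an empty vector for 24 h before fixation and dual staining for phospho-S6 and DNA (propidium iodide). Values are percentages of cells above a rapamycin-defined pS6/PI threshold.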

Activity change, negative = inhibition, inactive:
Cc1ccc(-n2ncc3c(Nc4cccc(C)c4C)ncnc32)cc1 10.4%
COCCn1c(=NC(=O)c2ccc3c(c2)OCCO3)sc2cc(C(=O)OC)ccc21 1.34%
COc1ccc(C(=O)OC2=C(C(=O)c3ccccc3)N(C)S(=O)(=O)c3ccccc32)cc1OC -6.4%
CCOc1ccc(CNC(=O)Cn2cc3c(n2)-c2c(oc(C(=O)N4CCOCC4)c2C)CC3)cc1 -7.18%
Cc1ccc(CN2C(=O)C3(c4ccccc42)N(c2cccc(F)c2)C(=O)CS3(=O)=O)cc1 (configuration not stated) 2.72%
CCOC(=O)c1c(C)c(-c2ccccc2)n(CC(=O)Nc2cc(C)ccc2OC)c1C -0.107%
Cc1ccccc1CN1CCC(CNc2ncnc3onc(-c4ccc(F)cc4)c23)CC1 -5.35%
COc1cc(NC(=O)NC(C)c2c(-n3cccc3)sc3c2CCCC3)cc(OC)c1OC (configuration not stated) -0.599%
CCCCN(CC)CCNC(=O)c1cn(C)c(=O)c2c1c1ccccc1n2C 1.9%
Cc1ccc(OCc2ccc(-c3nc(C#N)c(NCc4cccnc4)o3)o2)cc1 -1.26%
CCc1cccc(-n2nnc(-c3nsc(NC(=O)c4cccs4)n3)c2C)c1 1.29%
COc1ccc(CC2C(=O)Nc3ccc(Br)cc32)cc1OC (configuration not stated) -12.6%
COc1ccc(NC(=O)CCc2c(C)nc3nc(CNC(=O)OC(C)(C)C)nn3c2C)cc1OC -2.65%
COc1ccc(S(=O)(=O)NCC(c2ccco2)N2CCN(c3ccc(F)cc3)CC2)cc1C (configuration not stated) -5.31%
CCc1ccccc1NC(=O)N1CCN(C(=O)c2nsc3ccccc23)CC1 2.64%
CCc1ccc(NC(=O)CC2C(=O)N(c3cccc(C)c3)C(=O)N2Cc2ccco2)cc1 (configuration not stated) -0.32%
CC1CCN(S(=O)(=O)c2ccc3c(ccn3CCC(=O)NCc3ccc(N(C)C)cc3)c2)CC1 -12.8%
CCNc1nc(NC(C)(C)C)nc(Oc2ccc(=O)n(C)n2)n1 3.12%
O=C(NCCc1ccccc1)C(=O)NCC(c1ccc2c(c1)OCO2)N1CCOCC1 (configuration not stated) 2.33%
CCS(=O)(=O)N1CCc2cc(C(=O)NCCc3ccc(OC)cc3)ccc21 0%
CC1CCN(S(=O)(=O)c2nnc(NC(=O)c3cccc(Br)c3)s2)CC1 -1.9%
COc1cc(NC(=O)CC(C)n2nc(C)cc2C)cc(OC)c1 (configuration not stated) -5.5%
CCOc1ccccc1C(=O)N(Cc1ccccc1F)C1CCS(=O)(=O)C1 (configuration not stated) 4.45%
Cc1ccc(-c2nnc3ccccc3c2C(=O)Nc2ccccc2F)cc1 7.21%
COc1cc(NC(=O)C(CCSC)NS(=O)(=O)c2ccc3c(c2)oc(=O)n3C)cc(OC)c1 (configuration not stated) 0.56%
COc1ccc(Cl)cc1NC(=O)CSc1cn(CC(=O)N2CCCCCC2)c2ccccc12 -9.8%
Cc1ccc(-n2c(=O)c3c(c4cc(C)ccc4n3C)n(CC(=O)NCc3ccccc3)c2=O)cc1 5.18%
